Reference: the supplement of paper PMC4967469

Tests used:
[1] = compound: CC1=C(C(=O)Nc2cc3cn[nH]c3cc2F)C(c2ccc(C(F)(F)F)cc2)CC(=O)N1 [GSK429286A]; test: Viability of human cancer cell lines after 72 h of drug (GDSC screen); details: top dose inferred
Method: (§1)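 Human cancer cell lines in 384-well plates, medium with 10% serum, drug for 72 h over a 256-fold dose range (nine 2-fold or five 4-fold steps up to the top dose). Adherent lines were fixed and stained with the nucleic acid dye Syto60, suspension lines read with resazurin; signal relative to control wells, capped at 0 and 100%. One two-parameter sigmoid per drug and line, fitted in a mixed model over all curves with the slope shared within a line.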

[2] = compound: O=c1[nH]c2ccccc2n1C1CCN(Cc2ccc(-c3[nH]c4cc5ncnc5cc4nc3-c3ccccc3)cc2)CC1 [AKT inhibitor VIII]; test: as above; details: top dose inferred
Method: as §1

[3] = top dose 2.56 µM, screen: GDSC drug entry 171
[4] = top dose 10.24 µM, screen: GDSC drug entry 228

Cell Line	AUC [1]	IC50 [1] [µM]	AUC [2, 3]	IC50 [2, 3] [µM]	AUC [2, 4]	IC50 [2, 4] [µM]
8-MG-BA (glioma, adherent, top dose 20 µM)	0.947	> 20				
22RV1 (prostate, adherent, top dose 20 µM)	0.966	> 20				
42-MG-BA (glioma, adherent, top dose 20 µM)	0.975	> 20				
201T (lung adenocarcinoma, adherent, top dose 20 µM)	0.968	> 20				
451Lu (melanoma, adherent, top dose 20 µM)	0.985	> 20				
639-V (bladder, adherent, top dose 20 µM)	0.987	> 20				
647-V (bladder, adherent, top dose 20 µM)	0.987	> 20				
697 (lymphoblastic leukaemia, suspension, top dose 20 µM)	0.892	15.4				
769-P (kidney, adherent, top dose 20 µM)	0.894	> 20				
786-0 (kidney, adherent, top dose 20 µM)	0.97	> 20				
5637 (bladder, adherent, top dose 20 µM)	0.949	> 20				
8305C (thyroid, adherent, top dose 20 µM)	0.977	> 20				
8505C (thyroid, adherent, top dose 20 µM)	0.953	> 20				
23132-87 (stomach, adherent, top dose 20 µM)	0.985	> 20				
A3-KAW (B-cell lymphoma, suspension, top dose 20 µM)	0.902	16.6				
A4-Fuk (B-cell lymphoma, suspension, top dose 20 µM)	0.935	> 20				
A101D (melanoma, adherent, top dose 20 µM)	0.98	> 20				
A172 (glioma, adherent, top dose 20 µM)	0.979	> 20				
A204 (rhabdomyosarcoma, adherent, top dose 20 µM)	0.912	> 20				
A253 (head and neck, adherent, top dose 20 µM)	0.985	> 20				
A375 (melanoma, adherent, top dose 20 µM)	0.978	> 20				
A388 (skin, adherent, top dose 20 µM)	0.983	> 20				
A427 (non-small cell lung carcinoma, adherent, top dose 20 µM)	0.979	> 20				

Cell Line	AUC [1]	IC50 [1] [µM]	AUC [2, 3]	IC50 [2, 3] [µM]	AUC [2, 4]	IC50 [2, 4] [µM]
A431 (skin, adherent, top dose 20 µM)	0.982	> 20				
A498 (kidney, adherent, top dose 20 µM)	0.975	> 20				
A673 (rhabdomyosarcoma, adherent, top dose 20 µM)	0.98	> 20				
A704 (kidney, adherent, top dose 20 µM)	0.882	> 20				
A2058 (melanoma, adherent, top dose 20 µM)	0.959	> 20				
A2780 (ovary, semi-adherent, top dose 20 µM)	0.518	1.4				
ABC-1 (lung adenocarcinoma, adherent, top dose 20 µM)	0.973	> 20				
OAW-28 (ovary, adherent)			0.965	> 2.56	0.908	> 10.2
OSC-19 (head and neck, adherent)			0.983	> 2.56	0.942	> 10.2
OVCAR-3 (ovary, adherent)			0.795	1.32	0.987	> 10.2
PANC-10-05 (pancreas, adherent)			0.943	> 2.56	0.812	7.49
PC-3 (prostate, adherent)			0.918	> 2.56	0.861	> 10.2
PCI-38 (head and neck, adherent)			0.87	2.41	0.939	> 10.2
PL18 (pancreas, adherent)			0.896	> 2.56	0.988	> 10.2
RD (rhabdomyosarcoma, adherent)			0.942	> 2.56	0.904	> 10.2
RERF-GC-1B (stomach, adherent)			0.959	> 2.56	0.817	6.6
RL95-2 (endometrium, adherent)			0.985	> 2.56	0.964	> 10.2
RS4-11 (leukaemia, suspension)			0.896	> 2.56	0.575	1
RT-112 (bladder, adherent)			0.91	> 2.56	0.839	7.78
SK-CO-1 (large intestine, adherent)			0.923	> 2.56	0.989	> 10.2
SK-LU-1 (lung adenocarcinoma, adherent)			0.954	> 2.56	0.884	> 10.2
SK-MEL-28 (melanoma, adherent)			0.962	> 2.56	0.948	> 10.2
SN12C (kidney, adherent)			0.944	> 2.56	0.972	> 10.2

Cell Line	AUC [1]	IC50 [1] [µM]	AUC [2, 3]	IC50 [2, 3] [µM]	AUC [2, 4]	IC50 [2, 4] [µM]
SNU-175 (large intestine, suspension)					0.719	2.55
SNU-398 (liver, adherent)			0.908	> 2.56	0.865	9.66
SNU-475 (liver, adherent)			0.988	> 2.56	0.823	5.15
SNU-1040 (large intestine, adherent)					0.743	4.12
SU-DHL-1 (anaplastic large cell lymphoma, suspension)			0.997	> 2.56	0.881	5.74
SU-DHL-8 (B-cell lymphoma, suspension)			0.962	> 2.56	0.767	3.56
SU-DHL-10 (B-cell lymphoma, suspension)			0.961	> 2.56	0.532	0.762
SW156 (kidney, adherent)			0.939	> 2.56	0.923	> 10.2
SW837 (large intestine, adherent)			0.969	> 2.56	0.896	> 10.2
SW872 (soft tissue, adherent)			0.956	> 2.56	0.981	> 10.2
SW900 (lung squamous cell carcinoma, adherent)			0.931	> 2.56	0.947	> 10.2
SW1088 (glioma, adherent)			0.956	> 2.56	0.941	> 10.2
SW1116 (large intestine, adherent)					0.963	> 10.2
SW1463 (large intestine, adherent)			0.959	> 2.56	0.978	> 10.2
T-24 (bladder, adherent)			0.985	> 2.56	0.967	> 10.2
TALL-1 (T-cell lymphoblastic leukaemia, suspension)			0.99	> 2.56	0.941	> 10.2
TCCSUP (bladder, adherent)			0.896	> 2.56	0.982	> 10.2
TGBC24TKB (biliary tract, adherent)			0.962	> 2.56	0.848	6.91
U031 (kidney, adherent)			0.955	> 2.56	0.879	> 10.2
UACC-812 (breast, adherent)			0.991	> 2.56	0.939	> 10.2
VCaP (prostate, adherent)			0.942	> 2.56	0.731	2.99
VM-CUB-1 (bladder, adherent)			0.966	> 2.56	0.989	> 10.2
YMB-1-E (breast, adherent)					0.634	1.72

The IC50 comes from the fitted curve, where viability falls to half of the control; a fit beyond the top or the lowest dose is shown as a bound at that dose. AUC sums up the same curve from the lowest dose to the 256-fold higher top dose; it is 1 without any effect and falls as sensitivity rises. An inferred top dose comes from the curve model; the source does not state it. For some of these results: Where an entry number is given, a second screen of the drug exists; the two often differ.
